Laboratory results from PubChem BioAssay AID588855 (National Center for Advancing Translational Sciences (NCATS), 2011).
The campaign covered roughly 410,000 compounds. About 5,000 (1.2%) were called active. The inconclusive results got no clear call from the source; some entries with a clear call stand among them for comparison. Calls follow the shape of the dose curve; as a rule, active = well fitted inhibition curve with a large enough effect; inconclusive = small, poorly fitted or top-dose-only effect; inactive = no such curve, though single readings can be large or run the other way. Potencies beside an inconclusive call are fits to weak or partial responses and may not hold up.
Potency is read from the fitted curve at half-maximal effect; tags tell the direction and shape of the fitted curve.

Assay: qHTS for Inhibitors of TGF-b; also: nearly all actives have a fitted effect of over 65% in size
Conditions: HepG2 CAGA-GFP TGF-b/SMAD3 reporter, GFP fluorescence, 18 h, TGF-beta stimulated, 500 pg/mL final; series mostly up to 46.1 µM
Method in brief: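 Smad-responsive CAGA-GFP expression was quantified in HEPG2 cells exposed to compounds and 500 pg/mL final TGF-beta for 18 h at 37 degrees C; unstimulated wells defined full inhibition.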
For `COc1ccccc1NC(=S)N(Cc1cccs1)C1CCCC1`, the Potency was inconclusive: 17.8 µM [inhibitor, single point]. In the case of `Cc1cccc(NC(=O)c2nc[nH]c2C(=O)N[C@@H](C)c2ccccc2)c1`, the Potency is reported as inconclusive: 15.8 µM [inhibitor, partial curve, poor fit]. With `Cc1ccc(N(C(=O)CNC(=O)c2ccco2)C(C(=O)NC2CCCCC2)c2ccncc2)cc1F` (centres undefined) the Potency was inconclusive: 17.8 µM [inhibitor, single point]. In the case of `COc1ccc(S(=O)(=O)N2CCCCCC2)cc1C(=O)N(C)Cc1ccc(C(C)(C)C)cc1`, the Potency is reported as inconclusive: 35.5 µM [inhibitor, single point]. In the case of `Cc1ccccc1N1CC(C(=O)Nc2ccc(S(=O)(=O)N3CCOCC3)cc2)CC1=O` (centres undefined), the Potency is reported as “inactive”. With `Cc1ccc(CNC(=O)c2nc(-c3ccc(Cl)cc3)n3c2CCCCC3)cc1` the Potency was inconclusive: 12.6 µM [inhibitor, partial curve, poor fit]. For `Cc1ccccc1C(=O)Nc1nnc(S(=O)(=O)N(C)Cc2ccc(Cl)cc2)s1`, the Potency was inconclusive: 35.5 µM [inhibitor, partial curve, poor fit]. In the case of `CC1CCN(C(=O)/C(=C/c2ccccc2Cl)c2ccccc2)CC1`, the Potency is reported as “inactive”. With `O=C(Cc1ccc(F)cc1)N1CCC(c2nc3c(nnn3Cc3ccc(F)cc3)c(=O)[nH]2)CC1` the Potency was inconclusive: 35.5 µM [inhibitor, single point]. With `Cc1ccc(S(=O)(=O)Nc2nc3ccccc3nc2N2CCc3ccccc3C2)cc1` the Potency was inconclusive: 17.8 µM [inhibitor, partial curve]. With `Cc1cc(SCC(=O)Nc2ccccc2C)nc(C)n1` the Potency was “inactive”. With `O=C(c1ccc2[nH]c3c(c2c1)CCCC3)N1CCN(c2ccc(F)cc2)CC1` the Potency was inconclusive: 2.82 µM [inhibitor, single point]. With `CCCOc1ccc(C(=O)c2ccccc2C(=O)OC2CCOC2=O)cc1OCCC` (centres undefined) the Potency was inconclusive: 22.4 µM [inhibitor, single point]. For `O=C(O)CCn1c(O)c(C=C2N=c3ccccc3=N2)sc1=S`, the Potency was inconclusive: 10 µM [inhibitor, partial curve, poor fit]. In the case of `COc1ccccc1Nc1cc(C(=O)NCc2cccnc2)c2ccccc2n1`, the Potency is reported as “inactive”. In the case of `CCOC(=O)N1CCN(C(=O)c2ccc3c(Cl)c4c(nc3c2)CCCC4)CC1`, the Potency is reported as inconclusive: 22.4 µM [inhibitor, single point]. In the case of `COc1ccc(Br)cc1C(=O)Nc1ccccc1N1CCCC1`, the Potency is reported as inconclusive: 35.5 µM [inhibitor, single point]. In the case of `CCCN1CCN(CCNC(=O)Nc2cc(C)ccc2OC)CC1`, the Potency is reported as inconclusive: 0.398 µM [inhibitor, partial curve, poor fit]. With `C/C(=N\NC(=O)CCc1ccccc1)C1C(=O)c2ccccc2C1=O` the Potency was inconclusive: 35.5 µM [inhibitor, single point]. In the case of `O=C(CCCc1nc(-c2ccc(Cl)cc2)no1)NC1CCCC1`, the Potency is reported as inconclusive: 6.31 µM [inhibitor, partial curve, poor fit]. With `O=C(NN1C(=O)c2ccccc2NC1c1ccoc1)c1ccc([N+](=O)[O-])cc1` (centres undefined) the Potency was inconclusive: 8.91 µM [inhibitor, partial curve]. With `Cc1ccc(NC(=O)c2cccc(Oc3ccc([N+](=O)[O-])cc3)c2)c(C(=O)O)c1` the Potency was inconclusive: 31.6 µM [inhibitor, single point]. For `Cc1nn(-c2ccc(N3CCCC3)nn2)c(C)c1CCC(=O)NCc1ccccc1F`, the Potency was “inactive”. For `O=C(CCSCc1ccccc1F)N1CCN(c2ccc(Cl)cc2)CC1`, the Potency was inconclusive: 15.8 µM [inhibitor, partial curve, poor fit]. With `CC1(C(=O)NS(=O)(=O)c2ccccc2)CCN1C(=O)c1ccccc1` (centres undefined) the Potency was inconclusive: 3.98 µM [inhibitor, single point]. In the case of `CCCC(=O)NC(c1cccs1)c1cc([N+](=O)[O-])c2cccnc2c1O` (centres undefined), the Potency is reported as “inactive”. For `COc1ccc(OC)c(CCNC(=O)CN2C(=O)COc3ccc(S(=O)(=O)N4CCC(C)CC4)cc32)c1`, the Potency was inconclusive: 14.1 µM [inhibitor, single point]. In the case of `COc1ccc(-c2ccnc3nc(N4CCN(c5ccccc5)CC4)nn23)cc1`, the Potency is reported as “inactive”. In the case of `O=C(CCC(=O)c1cccs1)OCC(=O)c1ccccc1F`, the Potency is reported as “inactive”. With `O=S(=O)([O-])CCC[n+]1c(SCCCS(=O)(=O)O)sc2ccc(Cl)cc21` the Potency was inconclusive: 28.2 µM [inhibitor, single point]. With `CCCCC(=NCCc1c(C)[nH]c2ccc(OC)cc12)C1=C(O)CC(c2ccccc2)CC1=O` (centres undefined) the Potency was inconclusive: 10 µM [inhibitor, partial curve]. In the case of `CN(C)CCCn1c(=O)n(Cc2ccco2)c(=O)c2c3c(sc21)CCCCC3`, the Potency is reported as inconclusive: 35.5 µM [inhibitor, single point]. For `COc1ccc(-c2cn(-c3ccc(OC)cc3)c3[n+]2-c2ccccc2CC3)cc1`, the Potency was inconclusive: 15.8 µM [inhibitor, single point]. For `CN(CCc1ccccn1)C(=O)CCc1nnc(CCCc2ccccc2)o1`, the Potency was “inactive”. For `CSCCC(NC(=O)c1ccccc1)C(=O)N/N=C(\C)c1ccccc1` (centres undefined), the Potency was inconclusive: 7.08 µM [inhibitor, full curve, poor fit]. With `COc1cccc(/C=N/NC(=O)c2ccc(COc3ccc(Cl)cc3Cl)o2)c1` the Potency was inconclusive: 2.82 µM [inhibitor, full curve, poor fit]. For `COc1ccc([C@H]2CC(=O)C=C(c3ccc(CNC(=O)OC(C)(C)C)cc3)C2)cc1`, the Potency was inconclusive: 22.4 µM [inhibitor, partial curve, poor fit]. With `COc1ccc(C(=O)C2CCCN(C/C=C/c3ccccc3OC)C2)c(OC)c1` (centres undefined) the Potency was inconclusive: 35.5 µM [inhibitor, single point]. For `CN(C)S(=O)(=O)c1cccc(-c2nnc(-c3ccccc3)o2)c1`, the Potency was “inactive”. With `Cc1n[nH]c(C)c1Cc1c(F)cccc1Cl` the Potency was inconclusive: 35.5 µM [inhibitor, single point]. For `Fc1ccc(CNc2ncnc3c2cnn3-c2ccccc2)cc1`, the Potency was “inactive”. For `FC(F)(F)c1cnc2c(c1)Nc1ccccc1S2`, the Potency was inconclusive: 35.5 µM [inhibitor, single point]. In the case of `CC(C)(C)OC(=O)NCCCC[C@@H](C(=O)N1CCN(C(=O)OC(C)(C)C)CC1)n1cc(CCC(=O)O)nn1`, the Potency is reported as inconclusive: 1 µM [inhibitor, full curve, poor fit]. With `Cc1cc(C)cc(NC(=O)N2CCN3CCCCC3C2)c1` (centres undefined) the Potency was “inactive”. With `Cc1ccc(NS(=O)(=O)c2cc([N+](=O)[O-])ccc2NNC(=S)Nc2cccc(Cl)c2)c(C)c1` the Potency was inconclusive: 7.08 µM [inhibitor, full curve]. For `CC(C)(C)c1ccc(C(=O)NC(Cc2c[nH]c3ccccc23)C(=O)OCC(=O)c2ccccc2)cc1` (centres undefined), the Potency was inconclusive: 11.2 µM [inhibitor, single point]. For `O=C1CC(c2ccc(Cl)cc2)CC(O)=C1C=NCc1ccc(Cl)c(Cl)c1` (centres undefined), the Potency was inconclusive: 35.5 µM [inhibitor, single point]. With `CCc1ccc(NC(=O)CSc2nc3ccccc3nc2Cc2ccccc2OC)cc1` the Potency was “inactive”. With `COc1ccc(C[C@H]2CN3C(=NC[C@H]3C)N2CCNC(=O)c2ccc(C)c(Br)c2)cc1` the Potency was inconclusive: 35.5 µM [inhibitor, partial curve, poor fit]. In the case of `CCOC(=O)C(=CNNc1ccccc1)C(=O)OCC`, the Potency is reported as inconclusive: 11.2 µM [inhibitor, single point]. With `CC1(Cc2ccccc2OC(F)(F)F)C(=O)Nc2ccc(-c3ccsc3)cc21` (centres undefined) the Potency was inconclusive: 20 µM [inhibitor, single point]. In the case of `O=C(Nc1ccccc1Cl)N1CCn2c(nc3ccccc32)C1`, the Potency is reported as inconclusive: 35.5 µM [inhibitor, single point]. For `COc1ccc(S(=O)(=O)N(CC(=O)N(C)Cc2ccccc2)c2ccc(Cl)cc2)cc1`, the Potency was “inactive”. With `Cc1ccc(OCC(=O)Nc2ccc(Cl)c(-c3nc4ccccc4[nH]3)c2)cc1C` the Potency was inconclusive: 5.01 µM [inhibitor, partial curve, poor fit]. For `O=C(Nc1ccc2nc(C3CC3)n(Cc3ccc(F)cc3)c(=O)c2c1)c1ccco1`, the Potency was inconclusive: 12.6 µM [inhibitor, single point]. For `COC(=O)NCC(c1ccc2c(c1)OCO2)N1CCN(c2ccccc2)CC1` (centres undefined), the Potency was “inactive”. In the case of `Cc1cccc(OCC(=O)Nc2ccc(-c3nc4cc(C)ccc4o3)c(O)c2)c1`, the Potency is reported as “inactive”. With `CCC1CN(C(=O)N2CCC(C(=O)NCCC3=CCCCC3)CC2)c2cc(C)ccc2O1` (centres undefined) the Potency was inconclusive: 0.501 µM [inhibitor, full curve, poor fit]. For `COc1cc(CC(=O)OCC(=O)Nc2ccc(Cl)c(S(=O)(=O)N(C)C)c2)cc(OC)c1OC`, the Potency was inconclusive: 1.58 µM [inhibitor, partial curve, poor fit]. For `Cc1ccc(S(=O)(=O)N2CCC(C(=O)OCC(=O)NC3(C#N)CCCCC3)CC2)cc1C`, the Potency was “inactive”. In the case of `Cc1ccnc(N2C(=O)c3cccc4c([N+](=O)[O-])ccc(c34)C2=O)c1`, the Potency is reported as inconclusive: 35.5 µM [inhibitor, single point]. In the case of `Cn1cccc1/C=C1\SC(=Nc2ccccc2)NC1=O`, the Potency is reported as inconclusive: 10 µM [inhibitor, partial curve, poor fit]. In the case of `COc1ccccc1N1CCN(c2ncnc3c2nc2n3CCCC2)CC1`, the Potency is reported as inconclusive: 35.5 µM [inhibitor, single point]. In the case of `Cc1ccc(N=Cc2cc(Cc3ccccc3Cl)cc([N+](=O)[O-])c2O)c(O)c1`, the Potency is reported as inconclusive: 22.4 µM [inhibitor, single point].
